SMILES strings stand for the structures. Hit rate of the full screen: of about 310,000 compounds, about 14,000 (4.5%) showed an effect of 50% or more. The effect is printed as a negative number. Some of the results follow.
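Note: peak tail current of the secondary pulse compared with the same well before compound.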

Chain of human ether-à-go-go-related gene (hERG) potassium channel (Q12809 whole entry, looked up): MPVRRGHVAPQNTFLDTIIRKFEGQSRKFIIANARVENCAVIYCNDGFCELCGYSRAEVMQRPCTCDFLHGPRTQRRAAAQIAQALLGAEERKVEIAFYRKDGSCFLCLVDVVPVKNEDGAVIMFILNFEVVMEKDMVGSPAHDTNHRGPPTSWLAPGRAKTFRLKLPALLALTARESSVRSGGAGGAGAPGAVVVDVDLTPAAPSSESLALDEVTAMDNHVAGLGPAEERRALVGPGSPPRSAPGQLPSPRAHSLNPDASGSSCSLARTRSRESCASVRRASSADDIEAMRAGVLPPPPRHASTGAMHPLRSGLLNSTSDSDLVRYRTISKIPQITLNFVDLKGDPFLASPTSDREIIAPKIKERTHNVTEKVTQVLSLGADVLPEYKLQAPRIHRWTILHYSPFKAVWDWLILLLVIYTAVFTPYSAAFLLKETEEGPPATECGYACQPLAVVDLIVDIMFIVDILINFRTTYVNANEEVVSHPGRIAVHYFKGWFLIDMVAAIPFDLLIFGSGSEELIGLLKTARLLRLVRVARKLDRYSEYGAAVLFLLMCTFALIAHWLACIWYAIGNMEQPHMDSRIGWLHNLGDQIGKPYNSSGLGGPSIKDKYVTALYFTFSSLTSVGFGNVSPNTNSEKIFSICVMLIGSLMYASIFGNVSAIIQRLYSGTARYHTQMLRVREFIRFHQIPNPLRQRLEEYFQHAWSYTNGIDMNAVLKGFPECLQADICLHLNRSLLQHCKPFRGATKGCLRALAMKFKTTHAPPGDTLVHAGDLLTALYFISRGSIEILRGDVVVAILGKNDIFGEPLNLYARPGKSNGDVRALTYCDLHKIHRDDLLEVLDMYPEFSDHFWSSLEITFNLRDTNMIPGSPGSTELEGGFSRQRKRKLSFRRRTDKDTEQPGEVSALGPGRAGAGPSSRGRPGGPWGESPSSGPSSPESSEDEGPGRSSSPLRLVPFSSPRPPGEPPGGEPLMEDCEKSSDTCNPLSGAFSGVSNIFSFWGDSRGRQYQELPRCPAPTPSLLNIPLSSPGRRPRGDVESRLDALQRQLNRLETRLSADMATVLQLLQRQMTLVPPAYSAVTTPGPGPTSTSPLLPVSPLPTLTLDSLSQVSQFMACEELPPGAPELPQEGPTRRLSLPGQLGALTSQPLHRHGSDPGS

This assay addresses human ether-à-go-go-related gene (hERG) potassium channel (human, UniProt Q12809). The experiment in a line: primary screen, population patch clamp on CHO cells stably expressing hERG.
With `CCOC(=O)C1=C(N)Oc2c(c(=O)oc3ccccc23)C12C(=O)N(C)c1ccccc12` (centres unmarked), the “hERG current change (%, negative = inhibition) at 10uM” value is recorded as -4.96%.

With `Cc1cc(C)c2c(=O)[nH]c(SCC(=O)NCc3ccccc3)nc2n1`, the “hERG current change (%, negative = inhibition) at 10uM” value was found to be 2.76%.

Turning to `CCOC(=O)C1CCCN(CC(O)COc2ccccc2C(C)=O)C1.Cl` (centres unmarked), the “hERG current change (%, negative = inhibition) at 10uM” value is recorded as -46.2%.

As for `O=C(O)c1ncn(Cc2ccccc2)c1C(=O)O`, the “hERG current change (%, negative = inhibition) at 10uM” value came out at 14.3%.

For the compound `Oc1cccc(NC(=S)N=Nc2c(O)[nH]c3ccc(Br)cc23)c1`, the “hERG current change (%, negative = inhibition) at 10uM” value came out at 8.73%.

On to `COc1ccc(-n2nc(C)c3sc(C)nc3c2=O)cc1`, for which the “hERG current change (%, negative = inhibition) at 10uM” value came out at 8.78%.

As for `c1cncc(-c2noc(CC3CCCCC3)n2)c1`, the “hERG current change (%, negative = inhibition) at 10uM” value is -9.93%.

As for `Cc1ccc(C(=O)O)cc1-c1ccc(/C=C2\SC(=O)N(CC(=O)Nc3ccc4c(c3)OCO4)C2=O)o1`, the “hERG current change (%, negative = inhibition) at 10uM” value is listed as -0.866%.

Consider `Cc1ccc2[nH]c(=O)c(CN3CCCCC3)c(-c3ccccc3)c2c1`, for which the “hERG current change (%, negative = inhibition) at 10uM” value is reported as -53.6%.

In the case of `NC(=O)C1CCN(C(=O)C2CC(=O)N(c3ccc(F)cc3)C2)CC1` (centres unmarked), the “hERG current change (%, negative = inhibition) at 10uM” value was determined as 13.7%.

As to `Cc1cc(C(=O)NP(=O)(N2CCOCC2)N2CCOCC2)c(C)n1-c1ccc(Br)cc1`, the “hERG current change (%, negative = inhibition) at 10uM” value worked out at 7.94%.

On to `CN(Cc1ccon1)Cc1cn[nH]c1-c1ccc(-c2ccccc2)cc1`, for which the “hERG current change (%, negative = inhibition) at 10uM” value is given as -10.4%.

`Cc1ccccc1NC(=S)N(Cc1ccco1)C(C)c1cccs1` (centres unmarked): the “hERG current change (%, negative = inhibition) at 10uM” value is recorded as -17.6%.

`Cc1cc(C)nc(N(C#N)Cc2ccccc2Cl)n1`: the “hERG current change (%, negative = inhibition) at 10uM” value came out at 4.48%.

In the case of `CN(Cc1c(F)cccc1Cl)C(=O)CCc1c[nH]c2ccccc12`, the “hERG current change (%, negative = inhibition) at 10uM” value is listed as -4.53%.

In the case of `O=C1CC(c2ccccc2)n2nc(NS(=O)(=O)c3ccccc3)nc2N1` (centres unmarked), the “hERG current change (%, negative = inhibition) at 10uM” value is listed as -8.25%.

On to `Cc1ccc(NC(=O)CNC(=O)OCc2ccccc2)cc1C`, for which the “hERG current change (%, negative = inhibition) at 10uM” value amounted to 5.75%.

`COc1ccc(CC(=O)Nc2cccc(C(C)=O)c2)cc1S(=O)(=O)N1CCOCC1`: the “hERG current change (%, negative = inhibition) at 10uM” value is given as 11.4%.

As for `CSCC(=O)N1CCC(n2nccc2NC(=O)CCCc2ccccc2)CC1`, the “hERG current change (%, negative = inhibition) at 10uM” value is -17.6%.

Take `CC1(C)Cc2ccccc2C(=NC(Cc2ccccc2)C(=O)O)N1` (centres unmarked): the “hERG current change (%, negative = inhibition) at 10uM” value was 10%.

On to `CCCn1nc(NS(=O)(=O)c2ccccc2[N+](=O)[O-])c2cc3ccccc3nc21`, for which the “hERG current change (%, negative = inhibition) at 10uM” value was -26.5%.

With `CCC1(c2ccccc2)NC(=S)N(c2cccc(C)c2C)N1` (centres unmarked), the “hERG current change (%, negative = inhibition) at 10uM” value stood at 10.5%.

Take `Cn1cc(C=C2C(=O)OC3(CCCCC3)OC2=O)c2ccccc21`: the “hERG current change (%, negative = inhibition) at 10uM” value came out at 9.19%.

In the case of `C=CCNC(=O)c1c(CSc2ccc(Cl)cc2)noc1C(=O)NCc1ccccc1`, the “hERG current change (%, negative = inhibition) at 10uM” value amounted to 1.59%.

For the compound `O=S(=O)(c1ccc(Cl)cc1)N1CCCC(C(F)(F)F)C1` (centres unmarked), the “hERG current change (%, negative = inhibition) at 10uM” value was determined as 13.1%.

With `CCOc1ccc(NC(=O)c2ccc(Br)o2)c([N+](=O)[O-])c1`, the “hERG current change (%, negative = inhibition) at 10uM” value came out at 5.5%.

Consider `CC1CCCC(NC(=O)COC(=O)CN2C(=O)C3CCCCC3C2=O)C1C` (centres unmarked), for which the “hERG current change (%, negative = inhibition) at 10uM” value came out at 10.3%.

`COCCN(C(=O)Cn1c(C(F)(F)F)nc2ccccc21)c1c(N)n(Cc2ccccc2)c(=O)[nH]c1=O`: the “hERG current change (%, negative = inhibition) at 10uM” value was determined as 7.84%.

Take `Nn1c(Cc2cccc3ccccc23)nnc1SCCOc1ccc(F)cc1`: the “hERG current change (%, negative = inhibition) at 10uM” value was -17.5%.

Consider `O=C(c1cccs1)N1CCN(c2cc(Cl)ccc2Cl)CC1`, for which the “hERG current change (%, negative = inhibition) at 10uM” value is reported as -33.8%.

`CCOc1ccccc1-c1cc(C(=O)Nc2ccc(C(=O)O)cc2)c2ccccc2n1`: the “hERG current change (%, negative = inhibition) at 10uM” value amounted to 28.7%.

As for `Nc1nc(SCC(=O)Nc2ccccc2)[nH]c(=O)c1NC(=O)c1cccs1`, the “hERG current change (%, negative = inhibition) at 10uM” value is 3%.

In the case of `CCOC(=O)c1cnc2ccc(C)cn2c1=O`, the “hERG current change (%, negative = inhibition) at 10uM” value is -9.45%.

As for `O=C(Nc1ccc(F)cc1F)Nc1sccc1-c1nc2ccccc2s1`, the “hERG current change (%, negative = inhibition) at 10uM” value is 15.1%.

As for `COc1ccc(C(=O)COC(=O)CCN2C(=O)C3C4C=CC(C5CC45)C3C2=O)cc1` (centres unmarked), the “hERG current change (%, negative = inhibition) at 10uM” value was -11.1%.

In the case of `Cc1cc(COC(=O)C2N3C(=O)[C@@H](NC(=O)COc4ccccc4)[C@H]3SC2(C)C)on1` (some centres unmarked), the “hERG current change (%, negative = inhibition) at 10uM” value is given as -56.2%.

As to `N/C(=N\c1nc2c(c(=O)[nH]1)CCC2)Nc1cccc(Cl)c1`, the “hERG current change (%, negative = inhibition) at 10uM” value is recorded as -2.92%.

In the case of `CC(=O)Nc1cc(NC(=O)CCCC(=O)O)ccc1Cl`, the “hERG current change (%, negative = inhibition) at 10uM” value amounted to 3.55%.

Take `COc1cc(C)c(NC(=S)Nc2ccc(C)c(Cl)c2)cc1OC`: the “hERG current change (%, negative = inhibition) at 10uM” value is -2.77%.

On to `O=C(/C=C/c1ccc(Cl)cc1Cl)N1CCc2ccccc21`, for which the “hERG current change (%, negative = inhibition) at 10uM” value is listed as -1.39%.

`CN(C)c1ccc(/C=C(/C#N)C(=O)NCc2ccccc2)o1`: the “hERG current change (%, negative = inhibition) at 10uM” value amounted to 11.5%.

`COC(CN(C)S(=O)(=O)c1cc2c3c(c1)CCN3C(=O)CC2)OC`: the “hERG current change (%, negative = inhibition) at 10uM” value amounted to 21.7%.

With `COc1ccc(CN2CCNC(=O)C2CC(=O)NCCc2nc(C)c3c(n2)CCC3)cc1C` (centres unmarked), the “hERG current change (%, negative = inhibition) at 10uM” value is on record as 32.8%.

On to `O=[N+]([O-])c1cccc(-c2nc(-c3ccccc3)c(-c3cccs3)[nH]2)c1`, for which the “hERG current change (%, negative = inhibition) at 10uM” value was found to be 8.11%.

For the origin of these results see PMC4336329 (PLoS ONE, 2015).
